Measurements as given in article PMC4336329 (PLoS ONE, 2015).
In all, about 310,000 compounds went through this assay and about 2,200 (0.71%) showed an effect of 50% or more. Effects have a minus sign here. The list shows a part of the results.

Biological target: human ether-à-go-go-related gene (hERG) potassium channel (human, UniProt Q12809)
Assay: primary screen, population patch clamp on CHO cells stably expressing hERG

Chain of human ether-à-go-go-related gene (hERG) potassium channel (Q12809 whole entry, looked up): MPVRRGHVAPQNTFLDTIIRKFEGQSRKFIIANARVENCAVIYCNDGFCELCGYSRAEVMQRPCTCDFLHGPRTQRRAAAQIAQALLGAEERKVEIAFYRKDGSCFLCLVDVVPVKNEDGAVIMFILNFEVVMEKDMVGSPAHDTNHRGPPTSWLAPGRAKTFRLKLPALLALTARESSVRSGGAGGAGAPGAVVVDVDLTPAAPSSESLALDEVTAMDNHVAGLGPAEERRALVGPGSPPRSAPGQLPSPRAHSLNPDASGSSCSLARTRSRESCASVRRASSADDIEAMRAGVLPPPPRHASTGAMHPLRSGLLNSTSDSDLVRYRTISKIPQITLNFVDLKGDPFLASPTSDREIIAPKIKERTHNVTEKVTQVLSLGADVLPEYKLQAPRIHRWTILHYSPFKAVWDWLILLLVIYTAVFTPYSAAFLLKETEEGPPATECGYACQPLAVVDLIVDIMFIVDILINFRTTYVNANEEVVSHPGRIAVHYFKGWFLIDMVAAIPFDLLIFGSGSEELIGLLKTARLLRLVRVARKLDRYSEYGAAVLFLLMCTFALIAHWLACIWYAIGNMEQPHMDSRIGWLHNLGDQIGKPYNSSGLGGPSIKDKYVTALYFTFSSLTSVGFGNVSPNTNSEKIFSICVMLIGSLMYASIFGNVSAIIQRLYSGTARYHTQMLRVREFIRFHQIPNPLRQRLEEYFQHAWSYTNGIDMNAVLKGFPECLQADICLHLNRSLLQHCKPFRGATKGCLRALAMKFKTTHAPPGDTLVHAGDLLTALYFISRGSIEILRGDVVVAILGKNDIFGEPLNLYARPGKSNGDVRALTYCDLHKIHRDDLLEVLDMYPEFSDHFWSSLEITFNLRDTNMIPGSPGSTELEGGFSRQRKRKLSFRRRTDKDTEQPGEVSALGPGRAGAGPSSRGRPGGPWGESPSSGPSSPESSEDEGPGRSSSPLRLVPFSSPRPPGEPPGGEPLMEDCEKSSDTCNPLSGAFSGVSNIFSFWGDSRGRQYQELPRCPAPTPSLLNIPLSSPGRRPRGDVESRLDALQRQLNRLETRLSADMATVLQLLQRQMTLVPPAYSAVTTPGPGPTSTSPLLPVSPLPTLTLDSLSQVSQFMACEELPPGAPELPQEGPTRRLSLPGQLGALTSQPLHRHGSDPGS

Row | Compound | hERG current change (%, negative = inhibition) at 1uM [%]
1 | CCN(CC)CCn1c2c(c(SCC(=O)Nc3cc(OC)cc(OC)c3)nc1=O)CCC2 | -41.6
2 | Cc1c(OC(C)C(=O)NCCCN2CCOCC2)ccc2c3c(c(=O)oc12)CCC3 (stereo not drawn) | 16.5
3 | CNC(=S)Nc1ccc(N2CCN(c3ccc(C(F)(F)F)cn3)CC2)nc1 | 13.4
4 | N#CCCN=C(NS(=O)(=O)c1ccccc1)c1ccccc1 | 2.49
5 | CCCNC(=O)N1[C@H]2CC[C@@H]1C(C(=O)OC)=C(c1cccc(Cl)c1)C2 | 51
6 | N#Cc1c(N)n[nH]c1-c1cc2c([nH]1)CCCC2 | -5.87
7 | O=C(NC(=S)Nc1ccc(N2CCOCC2)cc1)c1cccc(Cl)c1 | 7.24
8 | Clc1ccc2nc(C3CCN(Cc4ccccc4)CC3)[nH]c2c1 | -73.7
9 | CCOn1c(=O)c(C)[n+]([O-])c2ccccc21 | -0.535
10 | COC(=O)CNc1n[nH]c(=S)[nH]c1=O | 10.9
11 | O=C(O)CC1S/C(=N\N=C/c2ccccc2O)N(c2ccc(O)cc2)C1=O (stereo not drawn) | 14.1
12 | Cc1cccc(-c2n[nH]c([N+](=O)[O-])n2)c1 | 16.6
13 | COc1ccc(OC)c(CN2CCN(C(=O)c3cccc(S(=O)(=O)Nc4ccccc4OC)c3)CC2)c1 | 15.1
14 | C=CCn1c(=O)/c(=C2/SC(C)=C(C)N2CC)s/c1=C1/C(=O)N(CC)C(=S)N1c1ccccc1 | 0.0913
15 | Cc1cnc(-c2nnc(N(C)C(=O)C3CCCO3)s2)cn1 (stereo not drawn) | 4.63
16 | COc1ccccc1NC(=O)COC(=O)c1oc2ccccc2c1C | 9.42
17 | COC(=O)c1ccc(C(=O)N2CCCC(Nc3ccc(F)c(F)c3)C2)cc1 (stereo not drawn) | 7.81
18 | COc1ccc(N2CCN(c3nc4c(c(=O)n(C)c(=O)n4C)n3CCCc3ccccc3)CC2)cc1 | 13.6
19 | c1ccc(Nc2nc(Nc3ccccc3)nc(N3CCNCC3)n2)cc1 | 7.99
20 | Cc1cccc(NC(=S)N/N=C/c2ccc3c(c2)OCO3)c1 | 6.61
21 | COc1cccc(-c2nc(N3CCC(C)CC3)c3ccccc3n2)c1O | 9.79
22 | CCOc1ccc(N(CCC#N)S(=O)(=O)c2ccc(OC)cc2)cc1 | -11.7

Row | Compound | hERG current change (%, negative = inhibition) at 1uM [%]
23 | O=C(NCCc1ccccc1)C1CC(=O)N(C2CCCC2)C1 (stereo not drawn) | 11.5
24 | COc1ccc(/C=N\N2CCN(Cc3ccccc3Cl)CC2)cc1.Cl | -8.27
25 | O=C(CCN1C(=O)C2CC=CCC2C1=O)Nc1nc(-c2ccc(F)c(F)c2)cs1 (stereo not drawn) | -14.4
26 | CCN(C(=O)c1cccs1)c1nc(-c2ccc(OC)cc2)cs1 | 13.4
27 | CC(=O)C1=C(O)CC(C)(C)CC1=NCc1nc2ccccc2[nH]1 | 8.31
28 | Cc1ccc2cc(CN(C(=O)c3ccco3)c3ccccc3)c(=O)[nH]c2c1 | -3.6
29 | NC(=O)N/N=C/c1ccccc1OC(=O)c1cc2ccccc2oc1=O | 5.7
30 | Cc1cccc(N2CC(C(=O)OCC(=O)c3ccc(OC(=O)c4cccs4)cc3)CC2=O)c1C (stereo not drawn) | 9.92
31 | CC(C)c1ccc(C2c3[nH]c4ccccc4c3C[C@H]3C(=O)N(c4ccccc4C(=O)N4CCC(C(=O)O)CC4)C(=O)N23)cc1 (stereo partly drawn) | 9.85
32 | Cc1nc(SC(C)C(=O)Nc2cccc(C(F)(F)F)c2)c2c(C)c(C(=O)O)sc2n1 (stereo not drawn) | 9.81
33 | Cc1sc(NC(=O)CN(C(=O)c2ccccc2F)C2CCCC2)c(C(N)=O)c1C | 4.46
34 | Cc1cccc(C)c1N(Cc1ccccc1F)S(C)(=O)=O | 8.55
35 | CCn1nnnc1SCC(=O)NCc1ccc2c(c1)OCO2 | 16.1
36 | CCOc1ccccc1N1Cc2cc(C)c(C)cc2C1 | -3.06
37 | CCOCc1nnc(NC(=O)CCc2ccccc2)s1 | 10.1
38 | CN(c1ccccc1)S(=O)(=O)c1cccc(NC(=O)Cc2c(F)cccc2Cl)c1 | -6
39 | N#Cc1ccc(COc2cccc3cccnc23)cc1 | 0.932
40 | CCOC(=O)C1CCN(C(=O)Nc2c(-c3ccccc3)noc2C)CC1 | 10.8
41 | CC(C)CCNC1=NCCCCC1 | -5.32
42 | O=C(Nc1ccc(F)cc1F)c1cc(-c2ccc3c(c2)OCO3)on1 | 10.7
43 | CC(=O)NC(=S)Nc1sc2c(c1C(N)=O)CCC(C)C2 (stereo not drawn) | 2.9
44 | COc1ccccc1NS(=O)(=O)c1cccc(C(=O)N/N=C/c2ccc(OCC(=O)O)cc2)c1 | 11.5

Row | Compound | hERG current change (%, negative = inhibition) at 1uM [%]
45 | O=C(Nc1ccccc1)C(=O)Nc1cccnc1 | 19.7
46 | COc1ccc(C(=O)N2CCN(c3ccccc3Cl)CC2)cc1S(=O)(=O)NC1CC1 | 7.63
47 | Cc1nc2nc(C)c(CCC(=O)N3CCN(c4ccccn4)CC3)c(C)n2n1 | 1.3
48 | O=c1c(Cc2ccc(Cl)cc2Cl)c(O)ccn1CCCN1CCOCC1 | 7.79
49 | CCc1ccccc1NC(=O)c1cccs1 | 1.03
50 | CCN1CCN(c2cc(N3CCc4ccccc4C3)c(F)cc2[N+](=O)[O-])CC1 | 0.12
51 | CC(C)n1c(SCC(=O)NC2CC2)nnc1C1CC1 | 8.7
52 | CC1CC(C)CN(C(=O)c2ccncc2)C1 (stereo not drawn) | 11.4
53 | Cc1ccc(S(=O)(=O)C2(C(=O)N3CCCCC3C)CC2)cc1 (stereo not drawn) | 5.14
54 | Cc1ccc(NS(=O)(=O)c2cc(NC(=O)c3ccc4c(c3)NC(=O)CS4)ccc2C)c(C)c1 | 3.47
55 | CCOC(=O)N1CCN(S(=O)(=O)N2CCCC(C(=O)NCc3ccccc3OC)C2)CC1 (stereo not drawn) | 1.05
56 | CC(=O)N1CC=C2C(C#N)=C(N)C(C#N)(C#N)C(CCc3ccccc3)C2C1 (stereo not drawn) | 9.08
57 | CCCn1c(=O)c(C(=O)Nc2c(C)n(C)n(-c3ccccc3)c2=O)c(O)c2ccccc21 | 3.85
58 | S=C(NCC1CCCO1)Nc1ccc(Cl)cc1 (stereo not drawn) | 15.7
59 | O=[N+]([O-])c1cccc(Cl)c1CSc1ccccn1 | 11
60 | Cc1ccc([C@@H]2[C@@H]3C(=O)N(C)C(=O)[C@@H]3[C@]3(Cc4ccccc4)C(=O)N(CCO)CC(=O)N23)o1 | 9.39
61 | Cc1ccc(N(C(=O)c2snc(C(N)=O)c2N)C(C(=O)NCC2CCCO2)c2c[nH]c3ccccc23)cc1 (stereo not drawn) | 9.56
62 | CC(C)(C)S(=O)(=O)c1cnc2c(-c3ccc(F)cc3)cnn2c1N | -11.8
63 | COc1ccc(CCNC(=O)c2sc3ccccc3c2Cl)cc1OC | 5.35
64 | Cc1nn(C)c(N)c1C(O)(c1nccn1C)C(F)(F)F (stereo not drawn) | 8.92
65 | CCC[C@@H]1C[C@@]1(CCC)[C@@H](NC(=O)c1ccccc1)c1ccc(C(=O)OC)cc1 | 24.5
66 | COc1ccc(C=O)cc1COc1ccc(Cl)cc1[N+](=O)[O-] | 13

Row | Compound | hERG current change (%, negative = inhibition) at 1uM [%]
67 | COc1ccc(/C(=N/OC(C)=O)c2nccc3cc(OC)c(OC)cc23)cc1OC | 13.8
68 | COC(=O)c1cc(C#N)c(=O)[nH]c1C | 17.2
69 | CCOC(=O)Cc1c(C)[nH]n(-c2ccccc2)c1=O | 14.7
70 | COc1ccc(CNC(=O)CN2C(=O)C3CCCN3c3ncc(Cl)cc32)cc1 (stereo not drawn) | 1.3
71 | CN(CCOc1ccccc1)C(=O)C1CCC(=O)N(CCc2ccc(Cl)cc2)C1 (stereo not drawn) | -51.2
72 | CC(C)OP(=O)(c1ccc(N(C)C)cc1)C(O)c1cccnc1 (stereo not drawn) | 11.7
73 | CC(=O)c1ccc(S(=O)(=O)Nc2cccc(-c3ccc(N4CCOCC4)nn3)c2)cc1 | 7.73
74 | Cc1ccccc1NC(=O)/C(=C\c1cccs1)NC(=O)c1ccco1 | -3.3
75 | Oc1ccc(NCc2ccccc2OCc2ccccc2F)cc1 | 10.4
76 | CC(Sc1nc(-c2ccccc2)cc(C(F)(F)F)n1)C(=O)NCCN1CCOCC1 (stereo not drawn) | 12.3
77 | Cc1ccc(C(=O)c2cc3ccccc3o2)cc1 | 11.3
78 | CN(Cc1cccc(F)c1)C(=O)c1ccccc1Sc1ccccc1C#N | 13.2
79 | COc1cc(OC)c(/C=N/NC(=O)c2ccc(Cn3nc([N+](=O)[O-])cc3C)cc2)c(OC)c1 | 9.32
80 | COc1ccc(CCN(C)CCC(=O)Nc2cccc(C)c2)cc1OC.Cl | -44.4
81 | O=C(CSc1nnnn1C1CCCCC1)N1c2ccccc2Sc2ccccc21 | -2.6
82 | CC(=O)Nc1sc(NC(=O)c2ccc([N+](=O)[O-])cc2)nc1-c1cccs1 | 6.61
83 | COc1ccccc1CN(Cc1nc2ccccc2c(=O)[nH]1)C(=O)Nc1ccccc1 | -0.616
84 | CCOC(=O)C1CCN(C(C(=O)NC2CCCCC2)c2ccc(OC)cc2)CC1 (stereo not drawn) | 2.65
85 | O=C(NC1CCCCC1)N1CCN(C(c2ccccc2)c2ccccc2)CC1 | 7.83
86 | Cc1ccc(NC(=O)CCNC(=O)c2ccc(Cl)cc2)nc1 | 3.43
87 | O=C(NCCc1ccccc1)[C@@H]1CC=C[C@@H]2CCN(Cc3ccccc3)C(=O)[C@@H]21 | 8.99
